Laboratory results reported in PubChem BioAssay (NCI).
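Dose response: 5 concentrations. Exposure: 48 h. Format: 96-well plates. Endpoint: linear interpolation; highest concentration if not reached. Abbreviation: GI50, concentration required for 50% inhibition of growth.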 Some entries of the source have several records that differ or are many. The other results are left out here. There may be further records. For part of these data: The tests behind the records often covered other concentration ranges, which the source does not state; a value can be the end of its range. For part of these data: The values listed for one entry are repeated measurements across runs, samples, wells, individuals or studies. Brackets tell where a record comes from. A, B and so on number the origins entry by entry.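 Definition used: TGI = concentration required for complete inhibition of growth.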

Assays:
Assay in all cases: NCI-60 cell line screen, 48 h
786-0 renal = system: 786-0 renal
A498 renal = system: A498 renal
A549 NSCLC = system: A549 NSCLC
ACHN renal = system: ACHN renal
CAKI-1 renal = system: CAKI-1 renal
CCRF-CEM leukemia = system: CCRF-CEM leukemia
COLO 205 colon = system: COLO 205 colon
EKVX NSCLC = system: EKVX NSCLC
HCC-2998 colon = system: HCC-2998 colon
HCT-116 colon = system: HCT-116 colon
HL-60(TB) leukemia = system: HL-60(TB) leukemia
HOP-62 NSCLC = system: HOP-62 NSCLC
KM12 colon = system: KM12 colon
LOX IMVI melanoma = system: LOX IMVI melanoma
M14 melanoma = system: M14 melanoma
MALME-3M melanoma = system: MALME-3M melanoma
MOLT-4 leukemia = system: MOLT-4 leukemia
NCI-H226 lung = system: NCI-H226 lung
NCI-H23 lung = system: NCI-H23 lung
NCI-H460 lung = system: NCI-H460 lung
NCI-H522 lung = system: NCI-H522 lung
OVCAR-3 ovarian = system: OVCAR-3 ovarian
OVCAR-4 ovarian = system: OVCAR-4 ovarian
RPMI-8226 leukemia = system: RPMI-8226 leukemia
SF-268 CNS = system: SF-268 CNS
SK-MEL-5 melanoma = system: SK-MEL-5 melanoma
SN12C renal = system: SN12C renal
SNB-19 CNS = system: SNB-19 CNS
SW-620 colon = system: SW-620 colon
UACC-257 melanoma = system: UACC-257 melanoma
UACC-62 melanoma = system: UACC-62 melanoma
UO-31 renal = system: UO-31 renal
HS 578T breast = system: HS 578T breast
SK-OV-3 ovarian = system: SK-OV-3 ovarian
T-47D breast = system: T-47D breast
HOP-92 NSCLC = system: HOP-92 NSCLC

SMILES: COc1ccc(C[C@@H]2NC[C@@H](O)[C@@H]2OC(C)=O)cc1
- TGI (786-0 renal): 237 nM and > 100 µM
- TGI (A498 renal): 52.2 nM and 27.4 µM
- TGI (A549 NSCLC): 974 nM and > 100 µM
- TGI (ACHN renal): 78.3 nM and > 100 µM
- TGI (CAKI-1 renal): 90.9 nM and > 100 µM
- TGI (CCRF-CEM leukemia): 70.7 nM and > 100 µM
- TGI (COLO 205 colon): 23.2 nM and > 100 µM
- TGI (EKVX NSCLC): 411 nM and > 100 µM
- TGI (HCC-2998 colon): 134 nM and 12.7 µM
- TGI (HCT-116 colon): 91.7 nM and > 100 µM
- TGI (HL-60(TB) leukemia): 18.2 nM and > 100 µM
- TGI (HOP-62 NSCLC): 135 nM and > 100 µM
- TGI (KM12 colon): 130 nM and > 100 µM
- TGI (LOX IMVI melanoma): 24.7 nM and > 100 µM
- TGI (M14 melanoma): 131 nM and > 100 µM
- TGI (MALME-3M melanoma): 293 nM and > 100 µM
- TGI (MOLT-4 leukemia): 65.9 nM and 49.7 µM
- TGI (NCI-H226 lung): 280 nM and 30.9 µM
- TGI (NCI-H23 lung): 114 nM and 27.3 µM
- TGI (NCI-H460 lung): 315 nM and > 100 µM
- TGI (NCI-H522 lung): 116 nM and > 100 µM
- TGI (OVCAR-3 ovarian): 237 nM and > 100 µM
- TGI (OVCAR-4 ovarian): 62.4 nM and > 100 µM
- TGI (RPMI-8226 leukemia): 97.3 nM and > 100 µM
- TGI (SF-268 CNS): 96.7 nM and > 100 µM
- TGI (SK-MEL-5 melanoma): 71.1 nM and 2.23 µM
- TGI (SN12C renal): 526 nM and 43.1 µM
- TGI (SNB-19 CNS): 128 nM and > 100 µM
- TGI (SW-620 colon): 247 nM and > 100 µM
- TGI (UACC-257 melanoma): 233 nM and 68.2 µM
- TGI (UACC-62 melanoma): 159 nM and 33.8 µM
- TGI (UO-31 renal): 156 nM and > 100 µM

SMILES: COc1cc(Nc2ncc(F)c(Nc3ccc4c(n3)NC(=O)C(C)(C)O4)n2)cc(OC)c1OC
- TGI (HS 578T breast): 820 nM [sample A, 1 test] and > 10 µM [sample B, 1 test]
- GI50 (SK-OV-3 ovarian): > 100 µM [sample A, 1 test] and 1.19 µM [sample B, 1 test]
- GI50 (T-47D breast): > 100 µM [sample A, 1 test] and 3.53 µM [sample B, 1 test]

SMILES: CN(C)CC1COC2Cc3ccccc3C1O2 (centres undefined)
- GI50 (UACC-62 melanoma): > 100 µM [sample A, 1 test] and 7.78 µM [sample B, 1 test]

SMILES: COC1C(O)C(C)OC(OC2C(Oc3cccc4c(O)c5c(=O)oc6ccc(C)c7c(=O)oc(c34)c5c67)OC(C)C(O)C2O)C1O (centres undefined)
- GI50 (CAKI-1 renal): 4.83 µM [mean of 3 tests] and 213 nM [mean of 4 tests]
- TGI (CAKI-1 renal): > 57.7 µM [mean of 3 tests] and 1.08 µM [mean of 4 tests]
- TGI (HOP-92 NSCLC): > 36.5 µM and 492 nM
